# Assay results from ChEMBL document CHEMBL4888484, “Replenishing the malaria drug discovery pipeline: Screening and hit evaluation of the MMV Hit Generation Library 1 (HGL1) against asexual blood stage Plasmodium falciparum ,using a nano luciferase reporter read-out” (2022).
# Screen size: about 150,000 compounds; about 540 (0.36%) showed an effect of 50% or more. The list shows a part of the results.
# System: Plasmodium falciparum
# Assay: Primary screen in NF54 nanoGlo assay, in single point, at 2uM, 72h; a lower Z score goes with more inhibition
# Assay type: functional, Erythrocyte
# Details: timepoint 72 hour
Compound,% Inhibition [%],Z score
COC[C@@](C)(C#N)NC(=O)c1cc(C)c(Br)c(Cl)c1,-10,1.74
Cn1ccnc1[C@@H](NCc1c(F)cccc1F)C1CC1,-5,0.67
CCn1ccnc1CN(C)C(=O)c1coc(CN2CCN(Cc3ccccc3)CC2)n1,8,-1.03
C=C(C)C[C@H](C)C(=O)Nc1nncn1C,0,-0.04
Cc1oc(C#N)cc1C(=O)N1CCOCC12CC2,17,-1.98
O=C(NCC1CCN(Cc2ccccc2F)CC1)[C@H]1CCCN(c2nc3ccc(Cl)cc3[nH]2)C1,-1,0.24
COCCN(Cc1ccc(C)s1)C(=O)c1cc(C(F)(F)F)n[nH]1,5,-0.44
O=C(c1cc(F)ccc1F)N1CCC[C@@]2(C1)NC(=O)N(Cc1ccccc1)C2=O,-9,1.03
COCC(=O)N1CCCCC[C@H]1c1noc(-c2ccc(F)cc2)n1,-15,1.72
CC(NC(=O)C(C)C1CC1)c1nn(C)cc1O (centres undefined),21,-2.69
CCOc1ccc(CN[C@H]2CCCO[C@@H]2c2cnn(CC)c2)nc1,-13,2.7
CS(=O)(=O)N[C@H]1[C@H](NC(=O)c2ncc(F)cc2F)[C@@H]2CCO[C@@H]21,13,-1.74
COc1ccc(OC)c(S(=O)(=O)N2CC3(C[C@H](CC(=O)NCC4CC4)CO3)C2)c1,-10,1.61
Cc1nnc(N(C)CCCNC(=O)OC(C)(C)C)s1,2,-0.38
O=C(NCc1cccnc1-c1ccsc1)c1ccc(-c2cccs2)cc1,6,-0.96
CC(C)=CCN1CC2(CCN(c3ncc(Cl)cc3F)CC2)CC1=O,-3,0.57
Cc1cc(C(=O)NC[C@]2(O)CCCN(S(=O)(=O)N(C)C)CC2)c(C)o1,-7,0.92
O=C([C@H]1CC(=O)N(C2CCCC2)C1)N1CCc2[nH]c3ccc(F)cc3c2C1,15,-1.45
COc1ccccc1CC(=O)NCc1ccccc1CN1CCC[C@H](C)C1,-2,0.37
CCc1cc(C(=O)N[C@H]2CCN(C3CCCCC3)C2)n(C)n1,-4,0.86
O=C(CN(Cc1cccc(O)c1)C1CCC(O)CC1)N1CCOCC1 (centres undefined),0,-0.03

Compound,% Inhibition [%],Z score
Nc1nc(N)nc(OCC(F)(F)C(F)(F)C(F)(F)C(F)(F)C(F)(F)C(F)(F)F)n1,-1,0.16
CC(C)Cc1nnc(NC(=O)C2CC3C=CC2C3)s1 (centres undefined),27,-3.1
CCC(C)c1ccc(C(CC)NC(C)=O)cc1 (centres undefined),-17,2.27
COc1ccc(-c2nnc(NC(=O)[C@H](C)NC(=O)Nc3ccc(OC)cc3OC)s2)cc1,2,-0.24
C[C@@H](Cc1ccc(OC(F)(F)F)cc1)C(=O)NCc1nccn1C,6,-0.82
C=CCNC(=O)COCc1cc(-c2ccco2)on1,-3,0.34
O=C(NC[C@H]1O[C@@H](CC(=O)N2CCN(c3ccc(F)cc3)CC2)[C@H](O)[C@@H]1O)c1cccc(F)c1,31,-3.54
COc1nc2c(c(C)nn2-c2ccc(C)cc2)c(C)c1CCC(=O)Nc1cccnc1,-7,0.95
CC(C)(CNC(=O)c1cnc2cc[nH]c2c1)C1CCOCC1,3,-0.45
Cn1cc(Cl)cc1C(=O)N1CCC(n2cn[nH]c2=O)CC1,-8,0.8
Cc1ccc(OCc2ccc(C(=O)NCC3CC(N)C3)o2)c(C)c1 (centres undefined),-15,2.1
O=C(NCC1(C2(O)CCOCC2)CC1)c1c[nH]c2cc(Cl)ccc12,20,-2.54
O=C(CC1COCCN1)NC(Cc1ccccc1Cl)c1ccccc1 (centres undefined),-2,0.35
CC(C)(Oc1cc2c(cc1-c1cncc(C3CC3)c1)CCO2)C(=O)O,-1,0.1
CN(CCc1noc(C(F)(F)F)n1)C(=O)[C@H]1C[C@@H]1c1ccccc1,-3,0.4
COc1ccc(CC[C@H](C)NC(=O)NCCNc2cnccn2)cc1,1,-0.16
CCOC(=O)Cc1nc(COc2ccc(Cl)cc2)n[nH]1,-5,0.74
COc1ccc2c(c1)CCN(Cc1nonc1C)C2,-9,1.15
C[C@H]1Cc2ccccc2N1C(=O)Cn1ncc(N2CCCN(C)CC2)cc1=O,3,-0.49
CCOc1cc2c(cc1-c1nccn1CCn1cnnc1)CCC2,-11,1.44
CCC[C@H]1CCCN1C(=O)c1cccc2c1CN(CCc1cn(C)cn1)C2=O,-3,0.53

Compound,% Inhibition [%],Z score
COc1cccc(CN2Cc3cc(NC(=O)Cc4cccs4)ccc3O[C@@H](C)C2=O)c1,-3,0.45
CCCc1csc(NC(=O)NCc2ccco2)n1,5,-0.83
O=C(N[C@H]1CCN(c2ccc(C(F)(F)F)cn2)C1)c1ccc2cc[nH]c2c1,-1,0.25
O=C(N[C@H]1CC[C@H](Oc2ncccn2)CC1)c1ccoc1,-15,1.76
Cc1cc(C)c(CS(=O)(=O)[C@@H](C)C(=O)N2CCCC2)c(C)c1,-7,1.33
CCCCC(CC)CNC(CC(=O)Nc1ccccc1C#N)C(=O)O (centres undefined),-13,1.7
Cc1cccc2nc(NCc3nnc4n3CCN(C)C4=O)sc12,32,-3.57
CN(C)C(=O)c1cccc(CNC(=O)N2C[C@H]3C[C@H](O)[C@H](O)C[C@H]3C2)c1,-14,1.91
CC(=O)Nc1cccc(C(=O)N2C[C@H]3CCC[C@@H](C2)N(C)C3)c1,-11,1.31
Cc1cc(N[C@H]2CC(=O)N(Cc3ccccc3)C2=O)ccc1N1CCCC1=O,-10,0.88
CCO[C@H]1COCC[C@@H]1NC(=O)c1cccc2cnccc12,-8,1.34
CCN1CCC(N2C[C@@H]3OC(=O)N(CCCc4ccc(F)cc4)[C@@H]3C2)CC1,-3,0.37
C=CCN1CC[C@@]2(CCC1=O)CN(c1cccc(C#N)n1)CCN2C,-1,0.25
COc1ccccc1C(N)=NOCc1csc(C2CCCC2)n1,-9,1.19
COc1ccc(CC(=O)N2CCC(Oc3ncccc3Br)CC2)cc1OC,-8,1.53
O=C(NC1CCOCC1)c1cc(Cl)ccc1OC1CCN(C2CCCC2)CC1,-18,2.59
NC(=O)N1CCC(Nc2ccc([C@H]3CCOC3)cc2)CC1,3,-0.46
COc1cnc(NC(=O)[C@@H]2CC[C@H](C(=O)N(C)C)O2)cn1,-12,1.42
Cc1ccc(-c2cc(NC(=O)c3ccccc3)c(=O)n(CC(=O)Nc3cc(F)cc(F)c3)n2)cc1,-5,0.78
COc1ccc(-c2cnn3c(C)cc(C)nc23)cc1S(=O)(=O)NCc1ccc2c(c1)OCO2,-16,1.52
Cc1cccc(CNC(=O)NC2CCOC2c2ccc(Cl)cc2)n1 (centres undefined),33,-4.45

Compound,% Inhibition [%],Z score
Cc1n[nH]c(C(F)(F)F)c1-c1cccc(C(=O)N2CCNC(=O)CC2)c1,-11,2.24
Cc1cnc(C)n1C[C@H]1CCN(C(=O)c2ccoc2)C1,-11,1.42
Cc1noc(CCNC(=O)c2cn(C)cn2)n1,-5,0.61
O=C(c1cc(Cl)cc(Cl)c1)N1c2ccccc2C=Cc2ccccc21,-4,0.81
CCN(CC(=O)NCc1cccs1)C(=O)c1cc(S(=O)(=O)N2CCCCC2)ccc1Cl,0,0.01
Cc1cccc(N2CCN(C(=O)c3nn(C)c4c3COCC4)CC2)c1C,4,-0.52
CCO[C@@H](C)c1noc(CNc2nccnc2C#N)n1,-3,0.49
Cc1cnc(CN2CC(O)(c3ccc(Cl)cc3)C2)nc1,2,-0.19
CC(NCC1Cc2ccccc2O1)c1ccc(-n2cnnn2)cc1 (centres undefined),3,-0.29
CC[C@]1(N2CCN(C(=O)NCc3ccco3)CC2)CCN(C(=O)C(C)C)C1,3,-0.26
Cc1ccc(Cn2c(=O)c(C(=O)NCc3cccnc3)nn(-c3ccc(C)c(F)c3)c2=O)cc1,6,-1.13
O=C(NCCCN1CCCC1=O)c1cccc(-c2cc(O)ncn2)c1,-3,0.58
O=C([C@@H]1CC=CCC1)N1CC(N2C(=O)CNC2=O)C1,-7,1.31
COc1ccnc(NC23CCC2CN(C(=O)c2ccc(C)o2)C3)n1 (centres undefined),-6,1.16
C=CCN(CC=C)CC(=O)Nc1cc(C(C)(C)C)no1,-1,0.16
COc1ccc(OCC(=O)N[C@H]2CC(=O)N(c3ccc4c(c3)OCCO4)C2)cc1,-7,1.31
Cc1cccnc1[C@@H](NC(=O)c1cc(Cl)cn1C)C1CC1,-18,1.65
O=C(CNS(=O)(=O)c1ccccc1)NCC(=O)OCc1ccc(S(=O)(=O)Cc2ccccc2)cc1,5,-0.73
CCCOc1ccccc1CCCNC(=O)N1C[C@H]2C[C@H](O)[C@@H](O)C[C@H]2C1,5,-0.74
